Screen size: about 45,000 compounds; about 65 (0.1%) were called active. Calls follow the shape of the dose curve; as a rule, active = well fitted activation curve with a large enough effect; inconclusive = small, poorly fitted or top-dose-only effect; inactive = no such curve, though single readings can be large or run the other way. The list shows a part of the results.
Target: Galactocerebrosidase (Homo sapiens) (UniProt P54803)
Experiment: A Novel Cell-Based Assay to Identify Small Molecules for B -Galactocerebrosidase; also: 0% is about no effect; nearly all actives have a fitted effect of over 65% in size
Settings: 145M-Twi-hGALC-G270D cells (Twitcher mouse brain line with human GALC G270D), HMU-beta-Gal fluorescence, 48 h; series mostly up to 57.5 µM; activation: at the top concentration
In short: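 Fluorescence readout: HMU-β-gal cleavage by mutant GALC (0.1 mM final, citrate/phosphate pH 5.2 with 1 mg/mL taurocholate), stopped with carbonate/bicarbonate plus Triton X-100. Cells: murine Twitcher 145M-Twi expressing human G270D GALC; qHTS for activators.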

Chain of UniProt P54803 (P54803 whole entry, looked up): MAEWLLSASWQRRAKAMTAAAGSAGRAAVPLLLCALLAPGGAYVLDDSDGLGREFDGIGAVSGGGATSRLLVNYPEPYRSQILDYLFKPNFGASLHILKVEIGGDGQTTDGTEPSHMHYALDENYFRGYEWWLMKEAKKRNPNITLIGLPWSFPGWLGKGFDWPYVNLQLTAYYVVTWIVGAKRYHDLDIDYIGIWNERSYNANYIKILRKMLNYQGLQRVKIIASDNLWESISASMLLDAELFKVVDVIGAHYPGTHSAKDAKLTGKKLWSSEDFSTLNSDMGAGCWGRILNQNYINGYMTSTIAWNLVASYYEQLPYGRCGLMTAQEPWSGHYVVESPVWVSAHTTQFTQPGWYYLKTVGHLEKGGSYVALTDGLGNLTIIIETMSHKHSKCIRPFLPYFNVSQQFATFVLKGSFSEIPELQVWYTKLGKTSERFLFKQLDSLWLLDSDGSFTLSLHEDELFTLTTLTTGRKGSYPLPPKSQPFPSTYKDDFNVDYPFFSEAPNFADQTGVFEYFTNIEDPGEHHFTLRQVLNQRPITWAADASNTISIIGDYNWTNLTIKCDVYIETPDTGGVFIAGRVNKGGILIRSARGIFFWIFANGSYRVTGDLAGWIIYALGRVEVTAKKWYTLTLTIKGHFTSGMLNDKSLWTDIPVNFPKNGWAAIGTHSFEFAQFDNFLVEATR

activation, inactive:
CC1CCN(C(=O)CSc2nnc(NC(=O)Nc3ccccc3)s2)CC1 -35.9%, Clc1cccc(-n2ncc3c(NCCCN4CCOCC4)ncnc32)c1 -15.3%, CCOc1ccccc1C(=O)NCc1ccc2c(c1)CCN2C(=O)c1ccccc1 -14.9%, Cc1cccc(Nc2nc3c(S(=O)(=O)c4ccc(Br)cc4)nnn3c3ccsc23)c1C -17.9%, Cc1cc(C)c2oc(-c3cccc(NC(=O)COc4ccccc4Cl)c3C)nc2c1 -11.4%, Cc1ccc(NC(=O)CCSc2nc(-c3ccc4c(c3)OCO4)cc(C(F)(F)F)n2)c(C)c1 -3.57%, CC1=C(C(=O)Nc2cccnc2)C(c2ccccc2Cl)n2nc(-c3ccccc3)nc2N1 (stereo unspecified) -0.451%, Cc1cc(NC(=O)CSc2ncc(C(=O)Nc3ccc(C)c(C)c3)c(=O)n2C)no1 -3.35%, COc1ccc(CCNC(=O)c2ccc(Cn3c(SCC(=O)NCCC(C)C)nc4cc5c(cc4c3=O)OCO5)cc2)cc1OC -15.5%, CS(=O)(=O)c1ncc(Cl)c(C(=O)Nc2c(C(=O)c3ccc(Cl)cc3)oc3ccccc23)n1 -27.3%, COc1cccc(-c2nc3c(C#N)c[nH]n3c2NC2CCC(C)CC2)c1 (stereo unspecified) -13.8%, Cc1ccc(C2CC(=O)n3nc(-c4cccc(C)c4)nc3S2)cc1 (stereo unspecified) -20.3%, COc1cc(-c2ccno2)ccc1S(=O)(=O)N1CCN(c2ccccc2)CC1 3.24%, CC(C)C(=O)Nc1nnc(SCc2cc(=O)n3ccccc3n2)s1 2.91%, CN(C)c1ccc(CNC(=O)C2CCN(S(=O)(=O)c3ccc4[nH]c(=O)ccc4c3)CC2)cc1 -14.2%, Cc1ccc2nc(CN3CCN(S(=O)(=O)c4ccc(C)c(C)c4)CC3)oc2c1 -18%, CC(=O)c1c(C)n(-c2ccc(C)cc2)c2ccc(OC(=O)COc3ccccc3)cc12 -9.73%, O=C(Nc1ccc2oc(-c3ccc4ccccc4c3)nc2c1)c1cc(Cl)ccc1Cl 4.87%, CCn1c(=O)c2cc(C(=O)NCCc3ccc(Cl)cc3)sc2c2ccccc21 -16.3%, CCn1c(=O)c2sccc2n2c(CCC(=O)Nc3ccc(C(C)C)cc3)nnc12 -8.18%, Cc1ccc(N(C)C(=O)C2CCN(S(=O)(=O)c3cn(C)cn3)CC2)cc1 -9.83%, CC1CCN(CCCNC(=O)CN2C(=O)CSc3ccc(S(=O)(=O)N4CCOCC4)cc32)CC1 -7.35%, COc1cc(C2c3c(oc4ccccc4c3=O)C(=O)N2Cc2ccc(C)cc2)ccc1O (stereo unspecified) -29.5%, COc1ccc(OCC(=O)NC(Cc2c[nH]c3ccccc23)C(=O)O)cc1 (stereo unspecified) -9.99%, CCc1nnc(SC(CC)C(=O)Nc2cc(C)ccc2C)c2cc3occc3n12 (stereo unspecified) -15.5%, CC1(COc2ccc(CC3SC(=O)NC3=O)cc2)CCCCC1 (stereo unspecified) -13%, CN(C)CCc1c[nH]c2ccc(CS(=O)(=O)N3CCCC3)cc12 -3.67%, COc1ccc(NC(=O)c2cc3c(=O)n(Cc4cccnc4)ccc3nc2C)c(OC)c1 -16.8%, Cc1ccc(CNC(=O)Cn2ccn(-c3ccc(F)cc3)c(=O)c2=O)cc1 -20.2%, O=C(Nc1ccc(N2CCOCC2)c(C(=O)O)c1)c1ccc(Br)cc1 28.4%, Cc1cccc(CN2C(=O)c3ccccc3S(=O)(=O)c3ccc(C(=O)NC4CCCCC4)cc32)c1 -5.66%, Cc1ccc2nc3c(cc(C(=O)NCc4ccco4)c(=N)n3C(C)C)c(=O)n2c1 -17.1%, Cc1ccc(NC(=O)c2c(C)oc3ncn(CC(C)C)c(=O)c23)nc1 5.75%, CC(=O)c1cccc(NC(=O)Cn2cc(C(=O)c3cccc(Cl)c3)c(=O)c3ccc(C)nc32)c1 -11.9%, CCCC(=O)Nc1ccccc1C(=O)OCc1cc(=O)n2nc(C(C)C)sc2n1 -15.5%, CCOC(=O)c1cc(S(=O)(=O)NCc2ccc(OC)cc2)[nH]n1 -26.7%, COc1ccc(OCc2ccc(-c3nc(C#N)c(NCc4cccnc4)o3)o2)cc1 -10.7%, Cc1cccc2c(=O)cc(CSc3ccccc3NC(=O)C(C)(C)C)[nH]c12 -11.7%, CCC(=O)N1CCCc2cc(S(=O)(=O)N3CCC(C(=O)Nc4ccc(C#N)cc4)CC3)ccc21 -12.4%, Cc1cc(C)cc(NC(=O)N2CCN(C(=O)c3nsc4ccccc34)CC2)c1 -13.1%, COC(=O)c1ccc(-n2c(/C=C/c3cc(OC)c(OC)c(OC)c3)nc3cc(Cl)ccc3c2=O)cc1 -8.79%, CCN(C(=O)Cn1c(=O)n(Cc2ccc3c(c2)OCO3)c(=O)c2ccc(C(=O)NC3CCCCC3)cc21)c1cccc(C)c1 -21.9%, COc1ccc(OC)c(S(=O)(=O)N2CCN(Cc3nc4ccc(C)cc4o3)CC2)c1 -5.05%, Cc1ccc(Cn2cc(S(=O)(=O)c3ccc(Cl)cc3)c(=O)c3cc4c(cc32)OCO4)cc1 -10.1%, CC(=O)Nc1ccc(NC(=O)C(NS(=O)(=O)c2ccc(Br)s2)c2ccccc2)cc1 (stereo unspecified) 0.351%, Cc1ccc(CNC(=O)CCc2nc3cccnc3n2Cc2ccccc2)cc1 -27.1%, COc1cc(NC(=O)Cn2nnnc2-c2ccccc2F)cc(OC)c1OC -5.28%, CC(=O)N1CCc2cc(S(=O)(=O)NC(Cc3ccccc3)C(=O)NCc3ccccc3Cl)ccc21 (stereo unspecified) -17.3%, COCc1oc2ccc(NS(=O)(=O)c3ccc(C)cc3)cc2c1C(=O)OC -23.7%, CCCc1ccc(OC(C)c2nc(-c3ccc(-n4cccc4)cc3)no2)cc1 (stereo unspecified) -4.74%, O=C(CCNS(=O)(=O)c1ccc2c(c1)CCN2C(=O)C1CC1)N1CCN(c2cccc(C(F)(F)F)c2)CC1 -44.7%, Cc1ccc(OCCSc2nc3ccc(NC(=O)c4ccco4)cc3s2)cc1 -7.44%, O=C1CC(=O)Nc2cc(S(=O)(=O)Nc3ccc(F)cc3Cl)ccc2N1 -17.3%, CCOc1ccc2nc(N(Cc3cccnc3)C(C)=O)sc2c1 -22.3%, COc1ccc(-c2cc3ccc(O)c(CN4CCCCC4C)c3oc2=O)cc1OC (stereo unspecified) -17.3%, CCCCn1cc(S(=O)(=O)c2ccc(OCC)cc2)c(=O)c2cc(OC)c(OC)cc21 4.1%, Cc1ccc(NC(=O)CN(CCc2ccccc2)S(=O)(=O)c2ccccc2)c(C)c1 -10.9%, CCOc1ccc(CNC(=O)Cn2nc(C)n3cccc3c2=O)cc1 4.66%, CCc1ccc(-n2nc3ccc(NC(=O)c4cc(Cl)c(OC)c(Cl)c4)cc3n2)cc1 -11.3%, Cc1ccc(CNC(=O)c2cccc(N3CCCS3(=O)=O)c2)cc1 -7.92%, COC(=O)c1cccc(NC(=O)N(C)CCc2c(C)nn(C)c2C)c1 -12.9%, C[N+](C)(C)CCOC(N)=O -8.26%, CN(C(=O)CSc1nc2ccc(NC(=O)c3ccccc3F)cc2s1)c1ccccc1 2%, COCCN1Cc2cccc(C(=O)Nc3ccc(C)c(F)c3)c2C1=O 1.23%, Cc1cc(C)cc(NC(=O)C(=O)NCC(c2ccc3c(c2)OCO3)N2CCOCC2)c1 (stereo unspecified) -17.7%, Cc1ccc(CNC(=O)Cn2c(=O)n(Cc3ccccc3)c(=O)c3c2c2cc(C)ccc2n3C)cc1 -4.09%, COc1ccc(CN2CCc3nc(Nc4ccccc4)ncc3C2)c(OC)c1OC -34.6%, CCOc1ccc(N2CC(C)Cn3c2nc2c3c(=O)n(CC(=O)O)c(=O)n2C)cc1 (stereo unspecified) -4.35%, COc1cc(N2C(=O)CSC23C(=O)N(C)c2ccccc23)cc(OC)c1OC (stereo unspecified) -7.5%, CC(C)(C)NC[C@H](O)COc1cccc2c1CCCC2=O -8.93%, CC(C)c1ccc(NC(=O)c2cn(C3CCCCC3)c(=O)c3c2c2ccccc2n3C)cc1 -22.4%, Fc1ccc(-c2cc(-c3nc(-c4ccccc4)no3)[nH]n2)cc1 -12.6%, COc1ccc(Nc2nc3c(S(=O)(=O)c4ccccc4)nnn3c3ccc(Cl)cc23)c(OC)c1 -9.32%, COc1ccccc1C1=NS(=O)(=O)N(C)C(C(=O)Nc2cc(OC)c(OC)c(OC)c2)=C1 -10.4%, Cc1nc2nc(SCC(=O)Nc3cccc(Cl)c3)nn2c(C)c1Cc1ccccc1 -8.5%, CCCCn1c(=N)c(S(=O)(=O)c2ccccc2)cc2c(=O)n3cccc(C)c3nc21 21.4%, Cc1ccc2c(c1)c1c(c(=O)n(-c3cccc(Cl)c3)c(=O)n1CC(=O)c1ccc(Cl)cc1)n2C -2.23%, CC(C)Cn1cc(NC(=O)NCc2ccccc2)c2ccccc2c1=O -28%, Cc1ccccc1NC(=O)N1CCc2cc(S(=O)(=O)N3CCC(C)CC3)ccc21 -11.7%, COc1ccc(-c2nc(C)c(CCNC(=O)c3ccc(F)c(F)c3)s2)cc1 -36.5%, Cc1ccccc1CNC(=O)c1cccc(NC(=O)c2nsc3ccccc23)c1 -4.49%, COc1ccc(-c2cn3cccnc3n2)cc1NC(=O)COc1ccccc1 -9.6%, Cc1c(CC(=O)N2CCCCC2)c(=O)oc2cc3occ(C(C)(C)C)c3cc12 -17.1%, CCC1=Nc2cc(C(=O)NCc3ccccc3OC)ccc2Sc2ccc(Cl)cc21 -3.61%, O=S(=O)(NCc1ccccc1Cl)c1ccc(-c2cnc(C3CC3)o2)cc1 0.0687%, COc1ccc(N2C(=O)CSC23C(=O)N(Cc2ccccc2F)c2ccccc23)cc1Cl (stereo unspecified) -34%, Cc1ccc(OCC(=O)Nc2ccc(OCc3cc(=O)n4ccsc4n3)cc2)cc1 -3.41%, CCC(=O)N1c2ccccc2CC1C(=O)NCCc1ccccc1Cl (stereo unspecified) -2.78%, Cc1ccc(S(=O)(=O)C2(C(=O)Nc3ccc(C)c(Cl)c3)CC2)cc1 -4.59%, CN1CCN(C(c2ccc(Cl)cc2Cl)c2sc3nc(-c4ccco4)nn3c2O)CC1 (stereo unspecified) -9.47%, Cn1nc(C(=O)NCc2cccc(Cl)c2)c2c1-c1ccccc1SC2 -11.2%, COCCNc1ncnc2c1cnn2-c1cc(Cl)ccc1C -8.31%, Cc1cc(C)c2c(n1)SCC(=O)N2CC(=O)Nc1ccc(C)c(C)c1 -7.86%, O=C(NCc1ccc(Cl)cc1)c1ccc(NC(=O)N2CC3CCCN3c3ccccc32)cc1 (stereo unspecified) -9.8%, CC1=C(c2ccc(C)cc2)S(=O)(=O)NC1=NCCCN1CCN(c2cc(C)ccc2C)CC1 4.69%, COc1ccc(N2CCN(CC(O)COc3ccc(C)cc3C)CC2)cc1 (stereo unspecified) -23.2%

— PubChem BioAssay AID1159614 (National Center for Advancing Translational Sciences (NCATS), 2016)
